{"source": "paper PMC11783601", "about": "“Analogue-Sensitive Inhibition of Histone Demethylases Uncovers Member-Specific Function in Ribosomal Protein Synthesis” (Journal of the American Chemical Society, 2025)", "target": "T1, KDM4A F185A (asKDM4A) in HEK293T cells (Homo sapiens, UniProt O75164, F185A)", "T1 construct": "we generated the F185A mutation in full-length KDM4A carrying all of the functional domains; host or cells: HEK293T", "T1 sequence (O75164 1-1064 F185A)": "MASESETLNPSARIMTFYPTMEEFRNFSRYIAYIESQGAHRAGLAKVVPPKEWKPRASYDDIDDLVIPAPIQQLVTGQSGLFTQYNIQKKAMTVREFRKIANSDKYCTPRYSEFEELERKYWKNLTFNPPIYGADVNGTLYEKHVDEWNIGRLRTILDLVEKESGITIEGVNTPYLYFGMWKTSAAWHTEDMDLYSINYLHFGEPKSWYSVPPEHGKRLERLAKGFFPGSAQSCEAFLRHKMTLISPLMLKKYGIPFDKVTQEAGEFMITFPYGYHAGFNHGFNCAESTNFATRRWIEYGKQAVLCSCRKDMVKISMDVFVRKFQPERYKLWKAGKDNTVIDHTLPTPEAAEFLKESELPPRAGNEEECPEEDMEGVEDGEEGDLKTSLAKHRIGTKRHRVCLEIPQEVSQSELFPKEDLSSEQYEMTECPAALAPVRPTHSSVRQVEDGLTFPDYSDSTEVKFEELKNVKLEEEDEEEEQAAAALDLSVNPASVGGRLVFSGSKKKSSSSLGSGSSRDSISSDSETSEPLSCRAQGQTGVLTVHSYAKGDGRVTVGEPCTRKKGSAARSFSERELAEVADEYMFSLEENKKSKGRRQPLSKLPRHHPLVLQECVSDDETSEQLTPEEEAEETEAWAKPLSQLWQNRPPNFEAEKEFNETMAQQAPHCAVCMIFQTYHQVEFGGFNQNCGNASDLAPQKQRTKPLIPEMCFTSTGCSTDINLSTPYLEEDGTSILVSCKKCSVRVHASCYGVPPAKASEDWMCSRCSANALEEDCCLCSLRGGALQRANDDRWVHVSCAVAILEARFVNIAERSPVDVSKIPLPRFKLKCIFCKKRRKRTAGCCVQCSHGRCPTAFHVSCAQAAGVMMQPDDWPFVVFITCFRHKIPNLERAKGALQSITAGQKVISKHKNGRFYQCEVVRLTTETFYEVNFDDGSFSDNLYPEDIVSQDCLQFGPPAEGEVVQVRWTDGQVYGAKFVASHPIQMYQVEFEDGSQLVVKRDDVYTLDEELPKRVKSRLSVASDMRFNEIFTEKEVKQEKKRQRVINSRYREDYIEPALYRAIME", "assay": "Histone extraction, digestion and tandem mass spectrometry (relative abundance of histone modifications)", "type": "cell-based", "protocol": "HEK293T cells were transiently transfected with asKDM4A and treated with varying concentrations of 6A or 6B. […] To further confirm the activity of the enzyme–inhibitor pair, we performed tandem mass spectrometry of tryptic histones isolated from HEK293T cells expressing asKDM4A in the presence or absence of 100 μM 6A. […]\n22. Histone extraction, digestion and tandem mass spectrometry\nHEK 293-T cells (ATCC CRL-1573) were plated into 6-well plates (Corning) in DMEM (Corning) supplemented with 10% FBS (Corning) and 1X Antibiotic/Antimycin\n(Penicillin/Streptomycin/Fungiozone) (Cytiva HyClone) in an incubator held at 37 °C with 5%\nCO2. At 75% confluency, cells were transfected with 2.5 µg KDM4A F185A or Empty Vector with 5µg Thermo Turbofect (FERR0531). After 4 hours, the media was washed and 200 µM of 6A or equivalent volume of DMSO was added and left to incubate at 37 °C for 24 hours. Cells were then washed with 1X PBS (Corning) followed by trypsinization (Gibco TrypLE™ Express Enzyme). Collected cells were centrifuged at 3000xg for 3 minutes, followed by washing with 1X PBS and centrifuged for an additional 3000xg for 3 minutes. Histone proteins were extracted from the pellet as described by25 to ensure good-quality identification and quantification of single histone marks. Briefly, cell pellets were dissolved in 100 µL of cold 0.2 M H2SO4 and incubated for 2 hours rotating in a cold room (4 °C). Aliquots were then centrifuged at 3400xg for 5 minutes […]\nat 4 °C and the supernatant was added to a fresh tube. 100% cold TCA was then added to a final volume of 33% volume/volume TCA/supernatant and left to incubate for 1 hour in a cold room (4 °C). Samples were then centrifuged at 3400xg for 5 min at 4 °C and the supernatant was discarded. The precipitate was then washed with cold acetone/0.1% HCl and centrifuged at 3400xg for 5 minutes at 4 °C. The supernatant was discarded, and the precipitate was washed with cold acetone and centrifuged at 3400xg for 5 minutes at 4 °C. The supernatant was discarded, and the pellet was dried using a vacuum centrifuge.\nThe pellet was dissolved in 50 mM ammonium bicarbonate, pH 8.0, and histones were subjected to derivatization using 5 µL of propionic anhydride and 14 µL of ammonium hydroxide (all Sigma Aldrich) to balance the pH at 8.0. The mixture was incubated for 15 min and the procedure was repeated. Histones were then digested with 1 µg of sequencing grade trypsin (Promega) diluted in 50mM ammonium bicarbonate (1:20, enzyme:sample) overnight at room temperature.\nDerivatization reaction was repeated to derivatize peptide N-termini. The samples were dried in a […]\nSample desalting: Prior to mass spectrometry analysis, samples were desalted using a 96-well plate filter (Orochem) packed with 1 mg of Oasis HLB C-18 resin (Waters). Briefly, the samples were resuspended in 100 µl of 0.1% TFA and loaded onto the HLB resin, which was previously equilibrated using 100 µl of the same buffer. After washing with 100 µl of 0.1% TFA, the samples were eluted with a buffer containing 70 µl of 60% acetonitrile and 0.1% TFA and then dried in a […]\nLC-MS/MS Acquisition and Analysis: Samples were resuspended in 10 µl of 0.1% TFA and loaded onto a Dionex RSLC […] (Thermo Scientific), coupled online with an Orbitrap Fusion Lumos (Thermo Scientific). Chromatographic separation was performed with a two-column system, consisting of a C-18 trap cartridge (300 µm ID, 5 mm length) and a picofrit analytical column (75 µm ID, 25 cm length) packed in-house with reversed-phase Repro-Sil Pur C18-AQ 3 µm resin. Peptides were separated using a 30 min gradient from 1-30% buffer B (buffer A: 0.1% formic acid, buffer B: 80% acetonitrile + 0.1% formic acid) at a flow rate of 300 nl/min.\nThe mass spectrometer was set to acquire spectra in a data-independent acquisition (DIA) mode.", "key": {"[1]": {"details": "peptide AGGKAGKDSGKAKAKAVSR, F185A cells treated with NOL, replicates _1, _2"}, "[2]": {"details": "peptide AGGKAGKDSGKAKTKAVSR, F185A cells treated with NOL, replicates _1, _2"}, "[3]": {"details": "peptide AGGKAGKDSGKAKTKAVSR, F185A cells treated with NOL, replicates _1, _2, listed as NOL"}, "[4]": {"details": "peptide AKAKSR, F185A cells treated with NOL, replicates _1, _2, listed as NOL"}, "[5]": {"details": "peptide AKAKTR, F185A cells treated with NOL, replicates _1, _2, listed as NOL"}, "[6]": {"details": "peptide GKGGKGLGKGGAKR(H4_4_17), NOL sample, replicates _1 and _2, listed as NOL"}, "[7]": {"details": "peptide GKQGGKAR(H2A1_4_11), NOL sample, replicates _1 and _2, listed as NOL"}, "[8]": {"details": "peptide GKQGGKVR(H2AJ_4_11), NOL sample, replicates _1 and _2, listed as NOL"}, "[9]": {"details": "peptide GKTGGKAR(H2AX_4_11), NOL sample, replicates _1 and _2, listed as NOL"}, "[10]": {"details": "peptide KGNYAER(H2A1_36_42), NOL sample, replicates _1 and _2, listed as NOL"}, "[11]": {"details": "peptide KQLATKAAR(H3_18_26), NOL-treated samples, replicates _1 and _2, listed as NOL"}}, "note": "Several values for one entry are separate records, joined by “and”; a condition that tells them apart may be missing. Equal values may be shown once.", "data": [{"smiles": "CC(C)CC(NC(=O)C(=O)O)C(=O)O", "note": "(stereo not drawn) [compound 6, N-oxalyl leucine]", "values": [{"measurement": "Ratio H2AV_1_19 unmod", "setting": "peptide AGGKAGKDSGKAKAKAVSR(H2AV_1_19), NOL sample, replicates _1 and _2, listed as NOL", "value": "0.9128 and 0.9779"}, {"measurement": "Ratio H2AV_1_19 K4acK7ac", "setting": "[1]", "value": 0}, {"measurement": "Ratio H2AV_1_19 K4acK11ac", "setting": "[1]", "value": 0}, {"measurement": "Ratio H2AV_1_19 K4acK11acK15ac", "setting": "[1]", "value": 0}, {"measurement": "Ratio H2AV_1_19 K4acK15ac", "setting": "[1]", "value": 0}, {"measurement": "Ratio H2AV_1_19 K4acK7acK11acK15ac", "setting": "peptide AGGKAGKDSGKAKAKAVSR, F185A cells treated with NOL, replicates _1, _2, listed as NOL", "value": "0.04673 and 0.01678"}, {"measurement": "Ratio H2AZ_1_19 K4acK7acK11ac", "setting": "[2]", "value": 0}, {"measurement": "Ratio H2AZ_1_19 K4acK11acK15ac", "setting": "[2]", "value": 0}, {"measurement": "Ratio H2AZ_1_19 K7acK11ac", "setting": "[2]", "value": 0}, {"measurement": "Ratio H2AZ_1_19 K4acK7acK11acK15ac", "setting": "[3]", "value": "0.009939 and 0.006407"}, {"measurement": "Ratio H2AZ_1_19 K15ac", "setting": "[3]", "value": "0.005028 and 0.007978"}, {"measurement": "Ratio H2AZ_1_19 unmod", "setting": "[3]", "value": "0.845 and 0.955"}, {"measurement": "Ratio H2A3_12_17 K13me1", "setting": "[4]", "value": "0.1111 and 0.1568"}, {"measurement": "Ratio H2A3_12_17 K15me1", "setting": "[4]", "value": "0.7248 and 0.5722"}, {"measurement": "Ratio H2A3_12_17 unmod", "setting": "[4]", "value": "0.1632 and 0.2648"}, {"measurement": "Ratio H2A1_12_17 K13me1", "setting": "[5]", "value": "0.01837 and 0.05049"}, {"measurement": "Ratio H2A1_12_17 K15ac", "setting": "[5]", "value": "0.1518 and 0.3249"}, {"measurement": "Ratio H2A1_12_17 K15me1", "setting": "[5]", "value": "0.04835 and 0.1097"}, {"measurement": "Ratio H2A1_12_17 unmod", "setting": "[5]", "value": "0.7807 and 0.5068"}, {"measurement": "Ratio H2A1_72_77 unmod", "setting": "peptide DNKKTR, F185A cells treated with NOL, replicates _1, _2, listed as NOL", "value": "0.9998 and 0.9973"}, {"measurement": "Ratio H3_73_83 K79ac", "setting": "peptide EIAQDFKTDLR(H3_73_83), NOL sample, replicates _1 and _2", "value": 0}, {"measurement": "Ratio H4_4_17 K5ac", "setting": "[6]", "value": "0.01296 and 0.02123"}, {"measurement": "Ratio H4_4_17 K8ac", "setting": "[6]", "value": "0.01341 and 0.01356"}, {"measurement": "Ratio H4_4_17 K8acK12ac", "setting": "[6]", "value": "0.002106 and 0.005789"}, {"measurement": "Ratio H4_4_17 K8acK16ac", "setting": "[6]", "value": "0.01508 and 0.03871"}, {"measurement": "Ratio H4_4_17 K12ac", "setting": "[6]", "value": "0.02796 and 0.04243"}, {"measurement": "Ratio H4_4_17 K12acK16ac", "setting": "[6]", "value": "0.0334 and 0.07469"}, {"measurement": "Ratio H4_4_17 K16ac", "setting": "[6]", "value": "0.2415 and 0.244"}, {"measurement": "Ratio H4_4_17 unmod", "setting": "[6]", "value": "0.6133 and 0.3722"}, {"measurement": "Ratio H2A1_4_11 K5ac", "setting": "[7]", "value": "0.0321 and 0.05065"}, {"measurement": "Ratio H2A1_4_11 K9ac", "setting": "[7]", "value": "0.008867 and 0.01172"}, {"measurement": "Ratio H2A1_4_11 unmod", "setting": "[7]", "value": "0.9518 and 0.8008"}, {"measurement": "Ratio H2AJ_4_11 K5acK9ac", "setting": "[8]", "value": "0.8976 and 0.6715"}, {"measurement": "Ratio H2AJ_4_11 K5me1", "setting": "[8]", "value": "0.02733 and 0.05547"}, {"measurement": "Ratio H2AJ_4_11 K9me1", "setting": "[8]", "value": "0.0314 and 0.05184"}, {"measurement": "Ratio H2AJ_4_11 unmod", "setting": "[8]", "value": "0.03735 and 0.1097"}, {"measurement": "Ratio H2AX_4_11 K5me1", "setting": "[9]", "value": "0.2972 and 0.3508"}, {"measurement": "Ratio H2AX_4_11 K9me1", "setting": "[9]", "value": "0.6095 and 0.2975"}, {"measurement": "Ratio H2A_82_88 unmod", "setting": "peptide HLQLAIR, F185A cells treated with NOL, replicates _1, _2", "value": 1}, {"measurement": "Ratio H2AX_36_42 unmod", "setting": "peptide KGHYAER(H2AX_36_42), NOL sample, replicates _1 and _2, listed as NOL", "value": "0.9999 and 0.9911"}, {"measurement": "Ratio H2A1_36_42 K36ac", "setting": "[10]", "value": "0.00048 and 0.000169"}, {"measurement": "Ratio H2A1_36_42 unmod", "setting": "[10]", "value": "0.9995 and 0.9998"}, {"measurement": "Ratio H2A3_36_42 unmod", "setting": "peptide KGNYSER(H2A3_36_42), NOL sample, replicates _1 and _2, listed as NOL", "value": "0.9972 and 0.9999"}, {"measurement": "Ratio H3_18_26 K18me1K23me1", "setting": "peptide KQLATKAAR(H3_18_26), NOL-treated samples, replicates _1 and _2", "value": 0}, {"measurement": "Ratio H3_18_26 K18ac", "setting": "[11]", "value": "0.002488 and 0.003404"}, {"measurement": "Ratio H3_18_26 K18acK23ac", "setting": "[11]", "value": "0.006469 and 0.003158"}, {"measurement": "Ratio H3_18_26 K23ac", "setting": "[11]", "value": "0.506 and 0.4403"}, {"measurement": "Ratio H3_18_26 unmod", "setting": "[11]", "value": "0.485 and 0.5531"}]}]}
